Measured values taken from PubChem BioAssay AID493208 (National Center for Advancing Translational Sciences (NCATS), 2011).
In all, about 44,000 compounds went through this assay and about 340 (0.77%) were called active. Inconclusive results (about 5%) are left out. The call rests on the fitted dose curve; in most records, active means well fitted inhibition curve with a large enough effect; inconclusive means small, poorly fitted or top-dose-only effect; inactive means flat fitted curve, though single readings scatter. The list shows a part of the results.

Assay: Acumen qHTS Assay for Inhibitors of the mTORC1 Signaling Pathway in MEF (Tsc2-/-, p53-/-) Cells: Sytravon;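 further: plate controls were DMSO for no effect and rapamycin for full effect; nearly all actives have a fitted effect of over 50% in size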
Conditions: phospho-rpS6 immunofluorescence/PI, 24 h; series mostly up to 38.3 µM; activity change, negative = inhibition: at the top concentration
Procedure, shortened: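 Tsc2-/-, p53-/- MEFs (empty-vector stable line) in DMEM + 10% FBS were treated with compounds 24 h at 37 degree Celsius, fixed, and immunostained for phospho-rpS6 (Alexa-488) with propidium iodide counterstain. Laser-scanning cytometry gave % positive cells, normalized against 7.5 nM rapamycin and DMSO.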

Activity change, negative = inhibition, inactive:
CCOCN(C(=O)Cn1cnc2cc(C)c(C)cc21)c1c(C)cccc1CC -5.83%, CCc1ccccc1NC(=O)c1cc(-c2ccc3c(c2)OCO3)on1 3.21%, CCOc1ccc(/C=C/c2nc(C#N)c(N3CCN(c4ccccc4)CC3)o2)cc1 2.55%, COc1ccc(CNC(=O)CN2C(=O)COc3ccc(S(=O)(=O)N4CCOCC4)cc32)cc1 1.93%, COc1ccccc1CNC(=O)Cn1c(=O)ccc2cc(S(=O)(=O)N3CCCC3)ccc21 -6.4%, CCOc1ccc(N(CC)S(=O)(=O)N2CCCC(C(=O)NCCc3ccccc3OC)C2)cc1 (stereo unspecified) 1.17%, CC1CCCCN1C(=O)CSc1nnc(-c2ccccc2Cl)o1 (stereo unspecified) -9.07%, COc1ccc(-c2cn3nc(N4CCC(C(=O)Nc5ccc(C)cc5)CC4)sc3n2)cc1 -8.05%, Cc1ccc(O)c(C2=Nc3ccccc3N=C(c3cccc(F)c3)C2)c1 -2.8%, O=C(Nc1ccc(C(=O)N2CCN(c3ccc(Cl)cc3)CC2)cc1)c1nsc2ccccc12 0%, Cc1ccc2oc(-c3cc(NC(=O)c4cccs4)cc(C)c3O)nc2c1 8.37%, COc1ccc(Br)cc1CNC(=O)C1COc2ccccc2C1 (stereo unspecified) -4.9%, Cc1ccc(-n2c(SCC(N)=O)nc3c([nH]c4ccccc43)c2=O)cc1 1.57%, Cc1ccc(Cn2c(C)c(CNC(C)c3ccccc3)c(C(=O)O)c2C)cc1 (stereo unspecified) -0.622%, Cc1ccc(Cl)cc1N1CCN(c2ncnc3onc(-c4ccc(F)cc4)c23)CC1 -9.09%, Cc1ccc(S(=O)(=O)Cc2nc(-c3ccc(C(=O)NCc4ccccc4F)cc3)oc2C)cc1 -20%, CCOC(=O)N1CCN(C(=O)CN(c2cc(C)ccc2OC)S(=O)(=O)c2ccc(C)cc2)CC1 -1.8%, CC(C)(C)c1ccc(-c2noc(CCC(=O)Nc3cccc(Cl)c3)n2)cc1 0.0182%, Cc1ccc(-c2nnc(Nc3cccc(C(F)(F)F)c3)c3ccccc23)cc1S(=O)(=O)N1CCOCC1 -0.94%, CCc1ccc(-n2nc(C)c3c(C(=O)Nc4cc(C)ccc4C)cc(C)nc32)cc1 3.28%, COC(=O)c1sc2cccc(F)c2c1S(=O)(=O)N1CCN(c2ccc(C)cc2C)CC1 -4.68%, CC1CCN(S(=O)(=O)c2nnc(NC(=O)c3cccc(F)c3)s2)CC1 -11.4%, Cc1cccc(N2CCN(C(=O)c3ccc4c(c3)c(C)c(C)n4C)CC2C)c1 (stereo unspecified) -2.85%, Cc1ccc(NC(=O)c2cc(S(=O)(=O)N3CCCC3)c[nH]2)c(C)c1 -6.94%, COc1ccc(OC)c(S(=O)(=O)NCCc2csc3nc(-c4ccccc4)nn23)c1 0.166%, COc1ccccc1N1CCN(c2cc(C)nc3nc(-c4ccc(Cl)cc4)nn23)CC1 -1.95%
